Experimental data taken from a collection of fitness landscapes (doi:10.1016/j.celrep.2020.107928).
In all, about 81,000 sequences were measured (“one-hybrid fitness for binding parS DNA”: median about -0.17, highest 2% from about 0.51 on). The list shows a part of the results.

B1: Caulobacter ParB omega fusion; a variant is named by its letters at X, in order, B8GW30 (parent)
chain: MESVVVGEPGMSEGRRGLGRGLSALLGEVDAAPAQAPGEQLGGSREAPIEILQRNPDQPRRTFREEDLEDLSNSIREKGVLQPILVRPSPDTAGEYQIVAGERAWRAAQRAGLKTVPIMVRELDDLAVLEIGIIENVQRADLNVLEEALSYKVLMEKFERTQENIAQTIGKSXSHVANXMRLLXLPDEVQSYLVSGELTAXHARAIAAAADPVALAKQIIEGGLSVRETEALARKAPNLSAGKSKGGRPPRVKDTDTQALESDLSSVLGLDVSIDHRGSTGTLTITYATLEQLDDLCNRLTRGI

Variants of: B1
Test: one-hybrid fitness for binding parS DNA (scaled: cognate 1, non-cognate 0); higher = stronger binding
Conditions: with parS DNA site
Summary of the method: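 Values were rescaled so that cognate is 1 and non-cognate is 0. Each is a fitness, the log change in a variant's read ratio to wild type from Illumina reads of plasmids before and after selection, with three replicate libraries pooled and variants under 10 reads dropped. Selection of the Caulobacter ParB libraries, four specificity codons randomised, used E. coli USO with a HIS3 reporter, site 19 bp from the promoter, on M9-minus-histidine with 0.1 mM IPTG and 5 mM 3-AT for 48 hours at 37°C.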

Point of comparison: RMWC, “one-hybrid fitness for binding parS DNA” value 0.984. Against it:
- QQLH — lower, ≤ 0.2
- ASLW — lower, ≤ 0.2
- LTST — lower, ≤ 0.2
- DVNC — lower, ≤ 0.2
- RFKA — lower, 0.571
- EGAF — lower, ≤ 0.2
- LIDT — lower, ≤ 0.2
- ITRP — lower, ≤ 0.2
- KAAS — lower, ≤ 0.2
- DYWM — lower, ≤ 0.2
- QSST — lower, ≤ 0.2
- RMSI — lower, ≤ 0.2
- RTDD — lower, ≤ 0.2
- LFFT — lower, ≤ 0.2
- HLTH — lower, ≤ 0.2
- HPQH — lower, ≤ 0.2
- TYVG — lower, ≤ 0.2
- YQVL — lower, ≤ 0.2
- DMNC — lower, ≤ 0.2
- QYVT — lower, ≤ 0.2
- LNHV — lower, ≤ 0.2
- DLDS — lower, ≤ 0.2
- QGNM — lower, ≤ 0.2
- IQLF — lower, ≤ 0.2
- ASNG — lower, ≤ 0.2
- NSHF — lower, ≤ 0.2
- QPFL — lower, ≤ 0.2
- QHNE — lower, ≤ 0.2
- IAPC — lower, ≤ 0.2
- REGY — lower, ≤ 0.2
- TQHR — lower, ≤ 0.2
- CTVR — lower, ≤ 0.2
- PKTY — lower, ≤ 0.2
- CHYV — lower, ≤ 0.2
- GRAL — lower, ≤ 0.2
- PWFN — lower, ≤ 0.2
- CYSG — lower, ≤ 0.2
- HVDW — lower, ≤ 0.2
- TMVT — lower, ≤ 0.2
- HCAC — lower, ≤ 0.2
- QQIR — lower, ≤ 0.2
- DDPL — lower, ≤ 0.2
- NDGK — lower, ≤ 0.2
- DAPD — lower, ≤ 0.2
- WFLP — lower, ≤ 0.2
- PFSS — lower, ≤ 0.2
- SLGG — lower, ≤ 0.2
- PCNG — lower, ≤ 0.2
- SRRS — lower, ≤ 0.2
- HRNA — lower, ≤ 0.2
- ARRP — lower, ≤ 0.2
- RIAK — lower, ≤ 0.2
- TPRS — lower, ≤ 0.2
- TPQR — lower, ≤ 0.2
- GYVR — lower, ≤ 0.2
- NKYC — lower, ≤ 0.2
- WTQC — lower, ≤ 0.2
- RPCS — lower, ≤ 0.2
- QEKA — lower, ≤ 0.2
- LKRS — lower, ≤ 0.2
- RVFG — higher, 0.993
- LATT — lower, ≤ 0.2
- HSEC — lower, ≤ 0.2
- GTSM — lower, ≤ 0.2
- VMCS — lower, ≤ 0.2
- YSAT — lower, ≤ 0.2
- PKNY — lower, ≤ 0.2
- CLSC — lower, ≤ 0.2
- GRRK — lower, ≤ 0.2
- TALE — lower, ≤ 0.2
- TPRI — lower, ≤ 0.2
- HRMM — lower, ≤ 0.2
- FDSL — lower, ≤ 0.2
- ITEG — lower, ≤ 0.2
- HNRG — lower, ≤ 0.2
- RAFQ — lower, ≤ 0.2
- GSPS — lower, ≤ 0.2
- GWLM — lower, ≤ 0.2
- KPFA — lower, ≤ 0.2
- RQGI — lower, ≤ 0.2
- CCYR — lower, ≤ 0.2
- QDHM — lower, ≤ 0.2
- DVLS — lower, ≤ 0.2
- IRGF — lower, ≤ 0.2
- RVLG — higher, 0.992
- PKAT — lower, ≤ 0.2
- YRLP — lower, ≤ 0.2
- RPPL — lower, ≤ 0.2
- YPAC — lower, ≤ 0.2
- SCHF — lower, ≤ 0.2
- KPVT — lower, ≤ 0.2
- PNMK — lower, ≤ 0.2
- WRHL — lower, ≤ 0.2
- SLFV — lower, ≤ 0.2
- NFHG — lower, ≤ 0.2
- HFAS — lower, ≤ 0.2
